Among the data in the supplement of paper PMC9446081 are relative growth values, retold here.

Among all 39,000 compounds or so, about 220 (0.56%) showed activity. The list shows a part of the results.
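Also: static incubation at 37 °C against the wild-type strain, values averaged over two biological replicates.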

This experiment deals with Escherichia coli K-12 BW25113. The experiment can be described thus: relative growth (OD600 normalised to plate interquartile mean) (fraction); higher = less growth inhibition, active = 0.2 or less. The conditions noted are these: 50 µM; LB; incubation time: overnight (16-24 h).
Regarding `C[C@@H]1CN([C@H](C)CO)C(=O)c2cc(NC(=O)Nc3ccc(F)cc3)ccc2O[C@@H](C)CCCCO[C@@H]1CN(C)C(=O)Cc1ccccc1`, the relative growth is inactive: 1.03.

As for `Nc1nc(=O)c2nc(Br)n([C@H]3O[C@H]4COP(=O)(O)O[C@@H]4[C@@H]3O)c2[nH]1`, the relative growth was inactive: 0.963.

In the case of `COc1ccc(S(=O)(=O)Nc2ccc3c(c2)[C@@H]2C[C@@H](CC(=O)NCC4CC4)O[C@@H](CO)[C@@H]2O3)cc1`, the relative growth was inactive: 0.967.

`CO[C@@H]1CN(C)C(=O)c2ccc(NS(C)(=O)=O)cc2OC[C@@H](C)N(C(=O)CN(C)C)C[C@@H]1C`: the relative growth was inactive: 0.983.

With `Cc1noc(C)c1NC(=O)N(C)C[C@@H]1Oc2ccc(NC(=O)Cn3cnnn3)cc2C(=O)N([C@@H](C)CO)C[C@H]1C`, the relative growth was inactive: 0.979.

As to `CCN(CC)CCOC(=O)C(Cc1cccc2ccccc12)CC1CCCO1.O=C(O)C(=O)O` (stereo not drawn), the relative growth is inactive: 0.938.

For the compound `Cc1noc(C)c1NC(=O)N(C)C[C@@H]1Oc2ccc(NC(=O)Nc3ccc(C(F)(F)F)cc3)cc2C(=O)N([C@H](C)CO)C[C@H]1C`, the relative growth is inactive: 0.988.

In the case of `C[C@H](CO)N1C[C@H](C)[C@H](CN(C)C(=O)Nc2ccc(F)cc2)Oc2c(NC(=O)CCCCCC(=O)Nc3ccccc3N)cccc2C1=O`, the relative growth was inactive: 1.

For `C[C@H](CO)N1C[C@H](C)[C@@H](CN(C)C(=O)Nc2ccc(F)cc2)Oc2ccc(NS(=O)(=O)c3cn(C)cn3)cc2C1=O`, the relative growth is inactive: 0.997.

In the case of `COc1ccc(NC(=O)N(C)C[C@@H]2Oc3cc(C#CCN(C)C)ccc3S(=O)(=O)N([C@@H](C)CO)C[C@H]2C)cc1`, the relative growth was inactive: 0.97.

`C[C@@H]1CN([C@@H](C)CO)C(=O)c2cc(NC(=O)CCC(F)(F)F)ccc2O[C@@H](C)CCCCO[C@@H]1CN(C)Cc1ccncc1`: the relative growth was inactive: 0.991.

As for `COc1ccc(NC(=O)N(C)C[C@@H]2Oc3ncc(Br)cc3C(=O)N([C@@H](C)CO)C[C@@H]2C)cc1`, the relative growth is inactive: 1.01.

`C[C@@H]1CN([C@@H](C)CO)C(=O)Cc2cc(NC(=O)Cn3cnnn3)ccc2O[C@@H]1CN(C)Cc1ccncc1`: the relative growth is inactive: 1.

Regarding `C[C@@H]1CCCCO[C@@H](CN(C)S(=O)(=O)c2cccs2)[C@@H](C)CN([C@H](C)CO)C(=O)c2cc(NC(=O)Nc3ccc(F)cc3)ccc2O1`, the relative growth was inactive: 0.977.

For `Cc1noc(C)c1NC(=O)Nc1ccc2c(c1)C(=O)N([C@H](C)CO)C[C@H](C)[C@H](CN(C)Cc1ccc(Cl)c(Cl)c1)OCCCC[C@@H](C)O2`, the relative growth was inactive: 0.948.

As for `C[C@H]1CCCCO[C@H](CN(C)Cc2ccc(Cl)c(Cl)c2)[C@@H](C)CN([C@@H](C)CO)C(=O)c2cc(NC(=O)NC3CCCCC3)ccc2O1`, the relative growth is inactive: 1.

Regarding `CC(C)[Si](C#C[Si](C(C)C)(C(C)C)C(C)C)(O[C@H](C)c1cn([C@H](CO)Cc2ccccc2)nn1)C(C)C`, the relative growth is inactive: 1.01.

As for `Cc1noc(C)c1NC(=O)N(C)C[C@H]1Oc2ccc(NC(=O)Nc3cccc4ccccc34)cc2C(=O)N([C@H](C)CO)C[C@H]1C`, the relative growth is inactive: 0.982.

As for `CCCN(C)C[C@H]1OCCCC[C@H](C)Oc2ccc(NC(=O)NC3CCCCC3)cc2C(=O)N([C@@H](C)CO)C[C@H]1C`, the relative growth is inactive: 0.996.

In the case of `Cc1cc(C(=O)O)nn1C`, the relative growth is inactive: 0.982.

As to `C[C@@H]1CN([C@H](C)CO)C(=O)c2cc(NC(=O)Nc3ccc4c(c3)OCO4)ccc2O[C@@H](C)CCCCO[C@@H]1CN(C)C(=O)c1ccccc1`, the relative growth is inactive: 1.02.

Take `COc1ccc(S(=O)(=O)Nc2ccc3c(c2)CC(=O)N([C@H](C)CO)C[C@@H](C)[C@@H](CN(C)C(=O)Nc2c(C)noc2C)O3)cc1`: the relative growth was inactive: 0.996.

With `Cc1c(-c2ccccc2)n(C[C@@H](O)CN)c2ccccc12`, the relative growth is inactive: 0.892.

Take `Cc1nc2c(c(N3CCOCC3)n1)OCC(=O)N2`: the relative growth is inactive: 0.997.

For `C=CCOC(=O)N(C)C[C@@H]1Oc2ccc(NC(=O)NC(C)C)cc2C(=O)N([C@H](C)CO[Si](C)(C)C(C)(C)C)C[C@H]1C`, the relative growth was inactive: 1.02.

`C[C@H](CO)N1C[C@H](C)[C@H](CN(C)Cc2ccc(-c3ccccc3)cc2)Oc2c(NC(=O)Nc3ccccc3)cccc2C1=O`: the relative growth is inactive: 0.989.

As to `C[C@H](CO)N1C[C@H](C)[C@@H](CN(C)Cc2ccc(Oc3ccccc3)cc2)Oc2c(NC(=O)C3CCOCC3)cccc2C1=O`, the relative growth is inactive: 1.

Consider `COC(=O)C[C@@H]1C[C@@H](C)[C@@H]2C(=O)c3c(O)c4c(c(O)c3C(=O)[C@@H]2[C@@H]1O)[C@H]1C[C@@H](O)[C@@]4(O)[C@@H](C)O1`, for which the relative growth is inactive: 1.03.

For `C=CC(C1=CC(=O)C(OC)=CC1=O)c1ccccc1` (stereo not drawn), the relative growth is inactive: 1.09.

On to `C[C@@H]1CN([C@H](C)CO)C(=O)c2cc(NC(=O)c3ccccc3)ccc2O[C@@H](C)CCCCO[C@H]1CN(C)Cc1ccc(C(=O)O)cc1`, for which the relative growth is inactive: 1.

For the compound `COc1ccc(NC(=O)N(C)C[C@H]2Oc3c(NS(=O)(=O)c4c(C)noc4C)cccc3C(=O)N([C@H](C)CO)C[C@H]2C)cc1`, the relative growth is inactive: 0.994.

For `C[C@H](CO)N1C[C@H](C)[C@@H](CN(C)Cc2ccc(-c3ccccc3)cc2)Oc2c(NC(=O)Nc3ccccc3)cccc2C1=O`, the relative growth was inactive: 1.01.

As for `CO[C@@H]1CN(C)C(=O)c2cc(NS(=O)(=O)CC(F)(F)F)ccc2OC[C@@H](C)N(Cc2nccs2)C[C@@H]1C`, the relative growth is inactive: 0.998.

`COCCCOc1cc(CC(CC(N)C(O)CC(C(=O)NCC(C)(C)C(N)=O)C(C)C)C(C)C)ccc1OC.O=C(O)C=CC(=O)O` (stereo not drawn): the relative growth is inactive: 0.978.

In the case of `C[C@@H]1CCCCO[C@H](CN(C)S(=O)(=O)c2cccs2)[C@H](C)CN([C@@H](C)CO)C(=O)c2cc(NC(=O)C3CCCCC3)ccc2O1`, the relative growth was inactive: 1.01.

`COc1ccc(CN(C)C[C@H]2OCCCC[C@@H](C)Oc3ccc(NC(=O)c4ccccc4)cc3C(=O)N([C@H](C)CO)C[C@@H]2C)cc1`: the relative growth is inactive: 1.03.

As to `CO[C@@H]1CN(C)C(=O)c2cc(NS(=O)(=O)CC(F)(F)F)ccc2OC[C@H](C)N(C(=O)c2ccc3c(c2)OCO3)C[C@@H]1C`, the relative growth was inactive: 0.99.

Consider `O=C(C1=C[C@H](c2ccc3c(c2)OCO3)C[C@H](OCCCCO)O1)N1CCN(Cc2ccc3c(c2)OCO3)CC1`, for which the relative growth is inactive: 1.

On to `CCCNC(=O)N[C@@H]1CC[C@H](CC(=O)N2CCN(C)CC2)O[C@@H]1CO`, for which the relative growth is inactive: 0.983.

As for `COc1ccccc1C#Cc1ccc2c(c1)O[C@@H](CN(C)C(C)=O)[C@H](C)CN([C@H](C)CO)S2(=O)=O`, the relative growth was inactive: 1.01.

For `CC(C)NC(=O)N(C)C[C@@H]1Oc2c(NC(=O)C3CCOCC3)cccc2C(=O)N([C@H](C)CO)C[C@H]1C`, the relative growth is inactive: 0.996.

As to `C[C@H]1CN([C@@H](C)CO)C(=O)Cc2cc(N(C)C)ccc2O[C@@H]1CN(C)S(=O)(=O)c1cn(C)cn1`, the relative growth was inactive: 0.969.

As to `CN(C)Cc1cn(CC[C@H]2CC[C@@H](N)[C@H](CO)O2)nn1`, the relative growth was inactive: 0.998.

For `CN1CCN(C(=O)C[C@@H]2CC[C@H](NC(=O)c3ccc4c(c3)OCO4)[C@@H](CO)O2)CC1`, the relative growth is inactive: 0.981.

Regarding `Cc1noc(C)c1NC(=O)Nc1ccc2c(c1)CC(=O)N([C@H](C)CO)C[C@@H](C)[C@H](CN(C)S(=O)(=O)c1ccccc1)O2`, the relative growth is inactive: 0.999.

As to `C[C@@H]1CN([C@H](C)CO)C(=O)c2c(c3ccccc3n2C)-c2ccccc2CO[C@@H]1CN(C)C(=O)N[C@H](C)c1ccccc1`, the relative growth was inactive: 1.01.

On to `C[C@@H]1CN([C@@H](C)CO)S(=O)(=O)c2ccc(C#CC3(O)CCCC3)cc2O[C@H]1CN(C)C(=O)c1ccccc1`, for which the relative growth is inactive: 1.

Turning to `COc1ccc(CN(C)C[C@H]2OCCCC[C@@H](C)Oc3ccc(NC(=O)CCC(F)(F)F)cc3C(=O)N([C@H](C)CO)C[C@@H]2C)cc1`, the relative growth is inactive: 1.01.

For the compound `O=C(C[C@H]1CC[C@@H]2[C@H](COC[C@H](O)CN2C(=O)Nc2ccc3c(c2)OCO3)O1)N1CCN(c2ccccc2)CC1`, the relative growth is inactive: 0.988.

Consider `C[C@@H]1CN([C@@H](C)CO)C(=O)Cc2cc(NC(=O)CCC(F)(F)F)ccc2O[C@H]1CN(C)Cc1ccc(C(=O)Nc2ccccc2N)cc1`, for which the relative growth was inactive: 0.997.

Take `CCN(CC)C(=O)c1ccc[n+](CC(N)=O)c1`: the relative growth was inactive: 1.

Take `C[C@@H]1CN([C@@H](C)CO)C(=O)c2cccc(NC(=O)c3ccc(-c4nccs4)cc3)c2O[C@@H]1CN(C)Cc1ccc(C(=O)O)cc1`: the relative growth is inactive: 1.02.

As to `C[C@@H]1CCCCO[C@H](CN(C)C(=O)c2ccccc2)[C@@H](C)CN([C@H](C)CO)C(=O)c2cc(NC(=O)Nc3ccc4c(c3)OCO4)ccc2O1`, the relative growth is inactive: 0.986.

Take `C[C@H]1CN([C@@H](C)CO)C(=O)c2cc(NS(=O)(=O)c3ccccc3)ccc2O[C@H]1CN(C)S(=O)(=O)c1ccccc1`: the relative growth is inactive: 1.03.

Regarding `C[C@@H]1CCCCO[C@@H](CN(C)Cc2ccncc2)[C@H](C)CN([C@@H](C)CO)C(=O)c2cc(NC(=O)NC3CCCCC3)ccc2O1`, the relative growth was inactive: 1.03.

Consider `Cc1noc(C)c1NC(=O)N(C)C[C@H]1OCCCC[C@@H](C)Oc2ccc(NC(=O)C3CCCCC3)cc2C(=O)N([C@H](C)CO)C[C@@H]1C`, for which the relative growth was inactive: 0.982.

`COc1ccc(NC(=O)N(C)C[C@@H]2OCCCC[C@@H](C)Oc3ccc(NS(=O)(=O)c4ccc(Cl)cc4)cc3C(=O)N([C@H](C)CO)C[C@H]2C)cc1`: the relative growth is inactive: 1.02.

`C[C@@H]1CN([C@@H](C)CO)C(=O)c2cc(NC(=O)C3CCCCC3)ccc2O[C@@H](C)CCCCO[C@@H]1CN(C)S(=O)(=O)c1ccc(Cl)cc1`: the relative growth was inactive: 1.02.
